The full ranking holds about 1,400 sequences; the median of “thermal melting temperature (Tm) of peptide-HLA complex” is about 60, and the lowest 2% start at about 45. Some of the results follow.
Each sequence was assayed against HLA-B*07:02 (assay: thermal melting temperature (Tm) of peptide-HLA complex; higher = more thermostable pHLA complex). Conditions: C1R-B*07:02.
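Further: cell lysates heated 10 min at 37–73 °C, remaining pHLA pulled down with pan-class I antibody, peptides quantified by DIA-MS versus 37 °C, Tm where half the complex is lost.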

Sequence | thermal melting temperature [°C]
NPNGRFVVV | 61.6
TPINKPPVL | 56
SPRAPVSPLKF | 59.5
SPAEPSVYATL | 62.8
RPRAPIIAV | 61.4
LPQLTGPVL | 63.1
SPRLLGAAAL | 59.8
EPRTVVSGL | 49.4
TPQGFRSTL | 60
NPRPTAQDL | 54.5
RPAGLSPTL | 59.6
TPARKEISL | 57.1
APRPGALL | 60.8
SPQPRLIYL | 62.7
SPVDPGARQAL | 56.7
RPKVPVLQL | 61.6
SPQKVTLYL | 62.1
LPKTGTVSL | 58.3
RPVTPITNF | 59.4

Sequence | thermal melting temperature [°C]
FPQHTIASL | 58.7
RPAANPIQFTL | 59.8
IPAKPPVSFF | 62
PAEPKLAF | 55.5
LPHAVSSLL | 62.4
LPRGEKPNPL | 51.3
GPDEAKIKALL | 60
APIQGNREEL | 56.3
NPRDPPSWSVL | 58.6
LPSVPSTHL | 57.8
APRTVLLL | 48.3
GPRPGSPSAL | 56.7
VPEVTKPSL | 57.6
VPMEIKPGISL | 61.6
SPRAGQLLEVL | 60
VPRNYDPAL | 57.3
RPSSTITYL | 55.4
SPRGFPLGL | 63.2
NPKNPGLWL | 61

Sequence | thermal melting temperature [°C]
SPGLLPHL | 61
PNIPGKSL | 61.1
TPLSSTVTL | 62.2
SPQSPGDAL | 58.9
RPLEMIEPRTL | 53.5
MPQKERESI | 60.6
YPRQQLLTL | 62.6
FPHATSQTLL | 60.5
SPYLRPLTL | 63.5
RPWDPAVGVL | 59.5
APPVLKRPIL | 51.5
RPSAAGINL | 57.1
LPYSIRVLL | 60.4
SPELIRVQL | 58.5
HPMPRVNEI | 55.6
TPRSPQPEL | 54.9
LLRLPSSVL | 59.8
HPRYLIPEL | 57.4
